# From the BET-seq Pho4 binding data (Le et al. 2018)
# The other results are listed elsewhere or left out. Values were computed here from the reads of four pooled replicates and scatter widely.
# Molecular target: T1, Pho4 (S. cerevisiae) (UniProt P07270)
# T1 sequence: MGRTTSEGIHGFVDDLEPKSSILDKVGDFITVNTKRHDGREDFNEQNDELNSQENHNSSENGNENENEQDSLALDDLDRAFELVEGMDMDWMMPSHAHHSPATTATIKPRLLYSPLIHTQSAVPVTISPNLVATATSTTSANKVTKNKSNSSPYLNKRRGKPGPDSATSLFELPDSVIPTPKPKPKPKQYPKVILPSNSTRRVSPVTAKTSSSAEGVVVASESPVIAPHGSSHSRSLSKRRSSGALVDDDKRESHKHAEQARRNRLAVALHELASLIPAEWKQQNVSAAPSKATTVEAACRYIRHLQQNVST
# Experiment: relative binding free energy (BET-seq); higher = weaker binding
# Conditions: reference: library average
row,Sequence,relative binding free energy [kJ/mol]
1,TAATTCACGTGTTATA,0.669
2,AGGGGCACGTGGGCCT,-1.55
3,TTGAACACGTGAAGGG,1.55
4,ATTAGCACGTGGTAGA,-0.879
5,GGATGCACGTGTTAAA,0
6,TCGGACACGTGTGTTG,0.544
7,TTGGACACGTGGTGGA,-0.251
8,TTGCACACGTGTTTGG,0.544
9,ATATCCACGTGGGATT,-0.0837
10,GTAGTCACGTGTTCAT,0.544
11,TTGGGCACGTGGTCAG,-0.92
12,TCATGCACGTGTGATA,0.293
13,CGTTTCACGTGACATG,2.01
14,AGCGTCACGTGGTTAA,0.335
15,ACTGGCACGTGGATGG,-0.377
16,ATTTACACGTGGGCAT,0.502
17,TATTTCACGTGAAGAT,1.05
18,ATCGTCACGTGTGGGA,1.13
19,TGTTACACGTGATAAT,1
20,TGAAGCACGTGTTGCG,-0.92
21,GGGTACACGTGGTGAT,0.126
22,ACAAGCACGTGGGTTG,-0.92
23,ACGATCACGTGATAGT,1.55

row,Sequence,relative binding free energy [kJ/mol]
1,AGGTTCACGTGGTGCT,0.335
2,CTTGGCACGTGGCTGG,-0.544
3,GCTGTCACGTGGGTAT,-0.628
4,CGAGTCACGTGGTGGT,0.335
5,AAGGCCACGTGGAGTG,-0.251
6,GAGTGCACGTGACTTG,0.879
7,TTAATCACGTGGTTGT,0.586
8,TATGACACGTGTTGCG,-0.209
9,GAGTGCACGTGGGGTC,-0.251
10,TTGTGCACGTGGATGA,0.293
11,AGAGTCACGTGGACGG,0.753
12,CTGTGCACGTGTACGT,-0.167
13,AACGACACGTGGGTGT,-0.711
14,CTGATCACGTGATTTG,0.837
15,TATGTCACGTGGTCGT,-0.377
16,GTATTCACGTGTGGCT,1.67
17,GTGGTCACGTGGATCT,1.09
18,CGTGACACGTGCGTGG,-0.251
19,TCTTGCACGTGGTGGT,0.167
20,TAATGCACGTGGCCGG,-0.418
21,TAGCGCACGTGGTCGG,-0.628
22,ATTGGCACGTGGCGAT,-0.711
23,GGTGACACGTGTATTG,0.0837

row,Sequence,relative binding free energy [kJ/mol]
1,ATCGGCACGTGAGGGG,0.628
2,GGGTGCACGTGGTTCT,-0.0418
3,TTTGACACGTGAGTTG,0.962
4,CATGGCACGTGGGCTG,-1.59
5,TCGAACACGTGTTGGG,0.126
6,ATTTACACGTGGCAGG,0.711
7,TGGGGCACGTGGGCCT,-0.586
8,ATCTGCACGTGGCGTG,-0.335
9,ATTTCCACGTGTAATT,0.669
10,GGCCGCACGTGGGTTT,-0.377
11,AAGATCACGTGGGTAT,-0.0418
12,GACGGCACGTGTGAGT,0.753
13,TATGGCACGTGTTGGC,0
14,GGTGTCACGTGTTCGA,0.795
15,GTGTACACGTGTGATC,0.544
16,AGAAGCACGTGCTTGT,-0.335
17,TGTCTCACGTGACGGT,1.21
18,CTAGGCACGTGTGGGA,-0.711
19,TGTGACACGTGACGTG,1.17
20,CGGGGCACGTGGTTAC,-0.669
21,TGTTTCACGTGACGTT,1.42
22,GTTATCACGTGTTAGC,0.669
23,TTGGTCACGTGCGGGT,0.837

row,Sequence,relative binding free energy [kJ/mol]
1,CAGGTCACGTGGTATG,0.586
2,TTGGGCACGTGGTACA,-1.26
3,AACTTCACGTGGGGTT,0.251
4,GTTTGCACGTGCCGGA,0.293
5,TTTACCACGTGATTTT,-0.0837
6,GGAAGCACGTGGGAGG,-0.962
7,GGGCGCACGTGGGTCT,-1.09
8,CTGGTCACGTGGGAGC,0.418
9,TTAAGCACGTGATTAT,-0.167
10,GCTATCACGTGGTTGA,1.09
11,GTGTTCACGTGTAGCT,1.26
12,CGCTGCACGTGGGTGG,-0.586
13,TTACGCACGTGTGCGG,-0.377
14,TATGACACGTGTGCTT,-0.167
15,TTGAACACGTGGTATT,0.0837
16,TGGCACACGTGAGGTG,1.63
17,TTGTCCACGTGAGATT,1.09
18,TAGCTCACGTGTTTTA,0.544
19,TCATGCACGTGTGCGG,-0.335
20,AATTGCACGTGGGCAG,-0.879
21,TCGTGCACGTGGCTTT,-0.209
22,TTTGTCACGTGACATG,0.837
23,GGACTCACGTGGGGCG,0.418

row,Sequence,relative binding free energy [kJ/mol]
1,GTGTACACGTGGAGCA,0.795
2,GTGTGCACGTGTTTAA,-0.167
3,AATTACACGTGGCGGG,-0.209
4,GCTAGCACGTGTATGT,-0.251
5,GTTGACACGTGAGGAC,1.42
6,GGGATCACGTGGTAGG,0.628
7,AGGGTCACGTGGATGC,0.293
8,TCTGTCACGTGGAGGT,0
9,GGGGGCACGTGTTCAA,-0.251
10,GTGCACACGTGCAGGG,0.377
11,CGAGGCACGTGGGGGC,-0.962
12,TATATCACGTGAACTT,2.18
13,GGTTACACGTGGCGCG,0.753
14,TGGCTCACGTGTTAAG,1.26
15,GTGCGCACGTGTGAAG,-0.126
16,GTTTACACGTGATAAA,1.97
17,CATTGCACGTGCGGGT,-0.544
18,ACGTTCACGTGATGGG,1.13
19,GTAGACACGTGGAATT,1.17
20,ATATACACGTGTGTGT,-0.0837
21,TGGGCCACGTGTAGGC,0.0418
22,AGGTTCACGTGTCGTT,1.42
23,GTGGGCACGTGTCCGG,-0.502
